{"source": "PubChem BioAssay (NCATS)", "note": "The shares of active, inactive and inconclusive entries below differ from those in the screen. Potencies beside an inconclusive call are fits to weak or partial responses and may not hold up. Activity calls are given as the source filed them. The call rests on the fitted dose curve; in most records, active means well fitted inhibition curve with a large enough effect; inconclusive means small, poorly fitted or top-dose-only effect; inactive means no such curve, though single readings can be large or run the other way. Potency means the concentration at half of the fitted maximal effect; tags describe the fitted curve by direction and shape.", "data": [{"assay": "BET inhibitor-based combinations targeting novel dependencies in MECOM-rearranged (r) AML: HNT-34 cell line (AID 2202234); further: nearly all actives have a fitted effect of over 35% in size;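 on viability (% of control): plate controls were vehicle wells for no effect and cell-free wells for full effect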", "settings": "HNT-34 AML viability, CellTiter-Glo luminescence, 48 h; series mostly up to 46 µM; viability (% of control): at the top concentration", "from_the_text": "Ecotropic viral insertion site 1 (EVI1) is located on chromosome 3q26.2 as part of the MECOM (MDS and EVI1 complex) locus. Under normal hematopoiesis, EVI1 is a regulator of hematopoietic stem cell maintenance and self-renewal and EVI1 levels decrease as the cells differentiate. In approximately 5-10% of de novo acute myeloid leukemia (AML) EVI1 is aberrantly expressed, including Chromosomal inv(3)(q21;q26.2) or t(3;3)(q21;q26.2) alterations (MECOM-r) that account for about 50% of AML with EVI1 overexpression 31. AMLs with high levels of EVI1 have a poor prognosis and an overall survival time averaging between 10-14 months. EVI1 overexpression confers resistance in leukemia cells, highlighting the need to develop new targeted therapies for EVI1 overexpressing AMLs. Here, we performed an unbiased chemical drug screening by evaluating the single agent activity of a collection of 2,480 oncology-focused, approved and investigational drugs (NCATS Mechanism Interrogation Plates, MIPE v5.0) against a panel of seven AML cell lines. These included four MECOM-r cell-lines (AML-191, AML-194, UCSD-AML1 and HNT-34) and three non-MECOM-r AMLs (MV4-11, OCI-AML3 and SET-2). Exploiting the mechanistic redundancy built in the library, we identified target-level sensitivities in MECOM-r AML cells and relative activity as compared to other AML subtypes.\nA collection of 2480 mechanistically annotated dugs (MIPE v5.0) was used to screen four 3q26.2 rearranged AML cell lines and three non-3q26.2 rearranged AML cell lines. This library purposely exploits redundancy by including multiple inhibitors of key onco-targets, while simultaneously encompassing mechanistic diversity, targeting more than 800 distinct mechanisms of action. Briefly, cells were seeded in 5 uL of growth media using a Multidrop Combi dispenser into 1536 well white polystyrene tissue culture treated plates (Corning) at a density of 500cells/well. For each cell-line, for each of the 2480 drugs in MIPE v5.0 library, an 11-point dose curve was generated via a 1536 pin-tool. Plates were incubated for 48 hr at standard incubator conditions, covered by a stainless steel gasketed lid to prevent evaporation. Cell viability was determined by luminescence based, Cell Titer Glo assay (Promega). In detail, 3 uL of Cell Titer Glo were added to each well and plates were incubated at room temperature for 15 min with a stainless-steel lid in place. Luminescence readings were taken using a Viewlux (PerkinElmer) with a 2 s exposure time per plate. Compound dose-response curves were normalized to DMSO and empty well controls on each plate. Quantitative drug activity data from dose-response curves was determined utilizing area Under the Curve (AUC) and Z-transformed AUC (Z-AUC, a mean-centering transformation applied to each individual cell-line screened).", "values": [{"smiles": "CC1(N2CCC(n3c([C@@H]4CCCNC4)nc4ccccc43)CC2)CCCCCCC1", "Potency": "active: 20.9 µM"}, {"smiles": "c1ccc2c(CN3CCNCC3)cccc2c1", "viability (% of control)": "inactive: 92.5%"}, {"smiles": "COc1ccc(N(C(=O)Oc2c(C)cccc2C)c2ccnc(Nc3ccc(N4CCN(C)CC4)cc3)n2)c(OC)c1", "Potency": "inconclusive: 1.32 µM [inhibitor, full curve]"}, {"smiles": "CC(=O)O[C@@]12CO[C@@H]1C[C@H](O)[C@@]1(C)C(=O)[C@H](O)C3=C(C)[C@@H](O)C[C@@](O)([C@@H](OC(=O)c4ccccc4)[C@H]21)C3(C)C", "Potency": "inconclusive: 37.2 µM [inhibitor, single point]"}, {"smiles": "COC1=C[C@@H]2[C@@H]3Cc4ccc(OC)c(O)c4[C@]2(CCN3C)CC1=O", "viability (% of control)": "inactive: 88.6%"}, {"smiles": "COc1ccc2c(c[n+](C)c3c4cc5c(cc4ccc23)OCO5)c1OC", "Potency": "inconclusive: 7.42 µM [inhibitor, full curve, poor fit]"}, {"smiles": "C/C=C(\\C)C(=O)N[C@@H](c1ccccc1)[C@@H](O)C(=O)O[C@H]1C[C@@]2(O)[C@@H](OC(=O)c3ccccc3)[C@@H]3[C@]4(OC(C)=O)CO[C@@H]4C[C@H](O)[C@@]3(C)C(=O)[C@H](OC(C)=O)C(=C1C)C2(C)C", "Potency": "inconclusive: 0.0166 µM [inhibitor, full curve]"}, {"smiles": "CCOC(=O)Nc1ccc(NCc2ccc(F)cc2)cc1N", "viability (% of control)": "inactive: 88.2%"}, {"smiles": "C=C1C[C@@H]2[C@H](CC[C@]3(C)C(=O)CC[C@@H]23)[C@@]2(C)C=CC(=O)C=C12", "Potency": "inconclusive: 23.5 µM [inhibitor, partial curve]"}, {"smiles": "C/C1=C/C[C@@H](/C(C)=C/c2csc(C)n2)OC(=O)C[C@H](O)C(C)(C)C(=O)[C@H](C)[C@@H](O)[C@@H](C)CCC1", "Potency": "inconclusive: 0.0833 µM [inhibitor, full curve]"}, {"smiles": "C#C[C@]1(O)C=C[C@H]2[C@@H]3CCC4=CC(=O)CC[C@@H]4[C@H]3CC[C@@]21CC", "Potency": "inconclusive: 33.2 µM [inhibitor, partial curve, poor fit]"}, {"smiles": "CC(C)C[C@H](CN)CC(=O)O", "viability (% of control)": "inactive: 106%"}, {"smiles": "O=C1C=CC[C@@H]2[C@H]3CCCN4CCC[C@@H](CN12)[C@@H]34", "viability (% of control)": "inactive: 91.8%"}, {"smiles": "O=S(=O)(F)Cc1ccccc1", "viability (% of control)": "inactive: 108%"}, {"smiles": "C[C@](O)(COc1ccc(C#N)cc1)C(=O)Nc1ccc(C#N)c(C(F)(F)F)c1", "Potency": "inconclusive: 26.3 µM [inhibitor, single point]"}, {"smiles": "O=C(Oc1ccc([N+](=O)[O-])cc1)N1CCC(C(O)(c2ccc3c(c2)OCO3)c2ccc3c(c2)OCO3)CC1", "Potency": "inconclusive: 20.9 µM [inhibitor, partial curve, poor fit]"}, {"smiles": "Cc1sc2c(c1C)C(c1ccc(Cl)cc1)=N[C@@H](CC(N)=O)c1nnc(C)n1-2", "Potency": "inconclusive: 0.235 µM [inhibitor, full curve]"}, {"smiles": "COC[C@@H](NC(C)=O)C(=O)NCc1ccccc1", "viability (% of control)": "inactive: 110%"}, {"smiles": "CC(C)[C@]12O[C@H]1[C@@H]1O[C@]13[C@]1(O[C@H]1C[C@H]1C4=C(CC[C@@]13C)C(=O)OC4)[C@@H]2O", "Potency": "active: 0.0742 µM"}, {"smiles": "COc1cc(C)[nH]c(=O)c1CNC(=O)c1c(C)n([C@H](C)C2CCOCC2)c2ccccc12", "viability (% of control)": "inactive: 106%"}, {"smiles": "CCN1C[C@]2(OC(=O)c3ccccc3NC(C)=O)CC[C@H](OC)[C@@]34[C@H]5CC6[C@@H](OC)C[C@](O)(C(C[C@@H]23)[C@@H]14)[C@@]5(O)[C@@H]6OC", "viability (% of control)": "inactive: 97.1%"}, {"smiles": "CC1(C)C(=O)N(c2ccc(C#N)c(C(F)(F)F)c2)C(=S)N1Cc1ccc(-c2cn[nH]n2)cc1", "Potency": "inconclusive: 18.6 µM [inhibitor, partial curve]"}, {"smiles": "C#CC1(O)CCC2C3CCC4=CC(=O)CCC4(C)C3CCC21C", "note": "(stereo not given)", "viability (% of control)": "inactive: 91.4%"}, {"smiles": "CN1C(=O)[C@@H](NC(=O)[C@H](CCC(F)(F)F)[C@H](CCC(F)(F)F)C(N)=O)N=C(c2ccccc2)c2ccccc21", "viability (% of control)": "inactive: 105%"}, {"smiles": "CC(C)c1cccc(C(C)C)c1O", "viability (% of control)": "inactive: 107%"}, {"smiles": "Fc1ccc(C(OCCN2CCN(CCCc3ccccc3)CC2)c2ccc(F)cc2)cc1", "Potency": "inconclusive: 33.2 µM [inhibitor, single point]"}, {"smiles": "O=C(Nc1ccncc1)C(=O)c1cn(Cc2ccc(Cl)cc2)c2ccccc12", "Potency": "inconclusive: 0.296 µM [inhibitor, full curve, poor fit]"}, {"smiles": "C[C@]12CC[C@@H]3[C@@H](CCC4=CC(=O)CC[C@@H]43)[C@@H]1CC[C@@H]2OC(=O)CCc1ccccc1", "Potency": "inconclusive: 16.6 µM [inhibitor, partial curve, poor fit]"}, {"smiles": "C/C(O)=C(\\C#N)C(=O)Nc1cc(Br)ccc1Br", "viability (% of control)": "inactive: 88.7%"}, {"smiles": "Cc1c(C(=O)Nc2cccc(C(F)(F)F)c2)cc(-c2ccccc2)n1CCCN1CCOCC1", "Potency": "inconclusive: 20.9 µM [inhibitor, partial curve]"}, {"smiles": "CCC1(c2ccc(N)cc2)CCC(=O)NC1=O", "note": "(stereo not given)", "viability (% of control)": "inactive: 105%"}, {"smiles": "N#CC(O[C@@H]1O[C@H](CO[C@@H]2O[C@H](CO)[C@@H](O)[C@H](O)[C@H]2O)[C@@H](O)[C@H](O)[C@H]1O)c1ccccc1", "note": "(stereo not given in full)", "viability (% of control)": "inactive: 72.3%"}, {"smiles": "CCNC(=O)C[C@@H]1N=C(c2ccc(Cl)cc2)c2cc(OC)ccc2-n2c(C)nnc21", "Potency": "inconclusive: 0.934 µM [inhibitor, full curve]"}, {"smiles": "CN1C(=O)COc2c(C(=O)NC3CN4CCC3CC4)cc(Cl)cc21", "note": "(stereo not given)", "viability (% of control)": "inactive: 101%"}, {"smiles": "CN[C@@H]1Cc2cccc3[nH]c(=O)n(c23)C1", "viability (% of control)": "inactive: 109%"}, {"smiles": "C[C@@H]1CN(Cc2ccc(F)cc2)CCN1C(=O)COc1ccc(Cl)cc1NC(N)=O", "Potency": "inconclusive: 18.6 µM [inhibitor, partial curve]"}, {"smiles": "CC1=C2C[C@H]3[C@@H](CC=C4C[C@@H](O)CC[C@@]43C)[C@@H]2CC[C@]12O[C@@H]1C[C@H](C)CN[C@H]1[C@H]2C", "viability (% of control)": "inactive: 98.8%"}, {"smiles": "C[C@@H](C1CC[C@@]2(O)C3=CC(=O)[C@@H]4C[C@@H](O)[C@@H](O)C[C@]4(C)[C@H]3CC[C@]12C)[C@H](O)CCC(C)(C)O", "note": "(stereo not given in full)", "viability (% of control)": "inactive: 104%"}, {"smiles": "C[C@]12CC[C@H]3[C@@H](CC[C@@]45O[C@@H]4C(O)=C(C#N)C[C@]35C)[C@@H]1CC[C@@H]2O", "viability (% of control)": "inactive: 87.6%"}, {"smiles": "C[C@H]1CCC/C=C/C2C[C@H](O)C[C@H]2[C@H](O)/C=C/C(=O)O1", "note": "(stereo not given in full)", "Potency": "active: 0.296 µM"}]}]}
